Measurements as given in PubChem BioAssay AID1030 (National Center for Advancing Translational Sciences (NCATS), 2008).
Where “and” joins values, the source holds several entries; their conditions need not be identical. Equal entries are not always repeated. In all, about 220,000 compounds went through this assay and about 16,000 (7.3%) were called active. Inconclusive results, whose numbers are uncertain, are shown with a selection of clear calls. Calls follow the shape of the dose curve; as a rule, active = well fitted inhibition curve with a large enough effect (not every such curve was filed as active); inconclusive = small, poorly fitted or top-dose-only effect, or another doubt; inactive = no such curve, though single readings can be large or run the other way. Potencies of inconclusive entries are left out as doubtful fits. Where a structure was tested more than once in an assay, its records may differ in their call.

Each compound was assayed against Aldehyde dehydrogenase 1A1 (Homo sapiens) (UniProt P00352) (assay: qHTS Assay for Inhibitors of Aldehyde Dehydrogenase 1 (ALDH1A1)). Conditions: Purified ALDH1A1, NADH fluorescence, propionaldehyde substrate; series mostly up to 75.3 µM; activity, negative = inhibition: at the top concentration.
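For activity, negative = inhibition in this document: plate controls were no enzyme wells and a reference inhibitor.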
Potency is read from the fitted curve at half-maximal effect; tags tell the direction and shape of the fitted curve.

UniProt P00352, sequence (P00352 whole entry, looked up): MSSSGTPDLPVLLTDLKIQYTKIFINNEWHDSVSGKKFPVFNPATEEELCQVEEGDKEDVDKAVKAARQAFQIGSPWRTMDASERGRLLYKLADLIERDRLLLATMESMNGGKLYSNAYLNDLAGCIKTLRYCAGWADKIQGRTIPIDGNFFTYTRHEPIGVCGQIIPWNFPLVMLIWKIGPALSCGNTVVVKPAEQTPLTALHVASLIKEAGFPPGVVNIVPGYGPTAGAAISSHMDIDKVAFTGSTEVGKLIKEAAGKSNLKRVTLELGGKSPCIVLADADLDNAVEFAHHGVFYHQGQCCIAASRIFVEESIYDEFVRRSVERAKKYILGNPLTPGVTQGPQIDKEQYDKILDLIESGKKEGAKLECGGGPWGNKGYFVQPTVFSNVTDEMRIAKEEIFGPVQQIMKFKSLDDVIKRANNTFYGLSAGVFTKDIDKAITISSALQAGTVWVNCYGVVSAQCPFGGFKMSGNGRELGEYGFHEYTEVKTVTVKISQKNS

| Structure (SMILES) | Potency | activity, negative = inhibition |
| --- | --- | --- |
| CCOP(=S)(OCC)SCC(=O)NC(C(=O)O)C(C)C (centres undefined) | inconclusive [inhibitor, single point] | – |
| CCCCOc1nc2ccccc2c(=O)n1-c1ccccc1 | active: 14.1 µM | – |
| CN1C2CCC1CC(NC(=O)c1nn(C)c3ccccc13)C2 (centres undefined) | – | inactive: -12.8% |
| COc1ccc2c3c1O[C@H]1C[C@@H](O)C=C[C@@]31CCN(C)C2 | – | inactive: -3.43% |
| CC(C)Cc1nnc(NC(=O)CCC(=O)N2CCN(CCOC(c3ccccc3)c3ccccc3)CC2)s1 | inconclusive [inhibitor, single point] | – |
| CC(=O)Nc1ccc(S(=O)(=O)N(C)CCOCc2ccccc2)cc1 | inconclusive [inhibitor, partial curve] | – |
| CN(C)c1ccc(/C=C/[N+](=O)[O-])cc1 | inconclusive [inhibitor, partial curve] | – |
| CC1=C(C(=O)N2CCC3(CC2)OCCO3)C2(CCC(C)CC2)OC1=O (centres undefined) | inconclusive [inhibitor, single point] | – |
| Cc1nnc2n1-c1ccc(Cl)cc1C(c1ccccc1)=NC2 | – | inactive: 6.94% |
| COP(=O)(OC)O/C(=C\Cl)c1cc(Cl)c(Cl)cc1Cl | inconclusive [inhibitor, single point] | – |
| CCCCCn1c(=O)c(C(=O)NCc2ccncc2)c(O)c2ccccc21 | inconclusive [inhibitor, partial curve] | – |
| O=C(O)[C@@H]1CSC(c2cccnc2)N1 (some centres undefined) | – | inactive: -9.18% |
| C=CCc1cc(OC)c2c(c1OC)OCO2 | – | inactive: -4.22% |
| CCCCN1CCC(O)(c2ccccc2)C(C(=O)c2ccccc2)C1 (centres undefined) | active: 0.112 µM | – |
| Clc1ccc2nc3c(c(-c4ccccc4)c2c1)CNCC3 | – | inactive: 11.2% |
| CCN(CC)c1ccc(CC2C(=O)N(C)C(=O)N(C)C2=O)cc1 | active: 4.47 µM | – |
| CCCCC(=O)Cl | inconclusive [inhibitor, single point] | – |
| Cc1cc(NC(=O)COC(=O)c2c(C)nn(Cc3ccccc3Cl)c2Cl)no1 | – | inactive: 11.4% |
| Cc1ccc(OCC(=O)N2CCN(Cc3cccnc3)CC2)cc1 | inconclusive [inhibitor, partial curve] | – |
| O=Cc1c(C(=O)O)n(Cc2ccc(Cl)cc2)c2ccccc12 | active: 12.6 µM | – |
| CCOC(=O)c1[nH]c(=O)c2ccccc2c1O | inconclusive [inhibitor, single point] | – |
| Cc1ccc(NN=C2C(=O)OC(C)(C)OC2=O)c(C)c1 | active: 10 µM | – |
| Cc1ccc(-c2nc3ccccc3c(=O)n2-c2ncccc2C)cc1 | inconclusive [inhibitor, single point] | – |
| C/C(=C\C=C/[C@@H](C)C(=O)O)[C@H]1CN[C@H](C(=O)O)[C@@H]1CC(=O)O | – | inactive: -4.2% |
| CCC(CC)NC1CCCCC1OC (centres undefined) | – | inactive: -10.4% |

| Structure (SMILES) | Potency | activity, negative = inhibition |
| --- | --- | --- |
| CCCCOCCCn1c(N)c(C(=O)OC(C)COC)c2nc3ccccc3nc21 (centres undefined) | inconclusive [inhibitor, partial curve] | – |
| CCNC(=O)O/N=C(\C)c1sc(-c2ccccc2)nc1C | inconclusive [inhibitor, single point] | – |
| CCCCOC(=O)c1ccccc1C(=O)OCCCC | inactive | – |
| CC1=NN(c2ccccc2)C(=O)C1/C=C1\C(=O)NC(=O)N(c2ccc(C)c(C)c2)C1=O (centres undefined) | – | inactive: -15.7% |
| O=C(CN1CCCCC1)Nc1ccc(Br)cc1C(=O)c1ccccc1Cl | – | inactive: -1.86% |
| CCC1(C2=NCCN2)Cc2ccccc2O1 (centres undefined) | inactive | – |
| CN1/C(=C\C=Nc2ccccc2)C(C)(C)c2ccccc21 | – | inactive: 0.75% |
| COc1ccc2oc3c(c2c1)NC(=O)CN=C3c1ccccc1 | inconclusive [inhibitor, partial curve] | – |
| CC[C@@H](CO)NC(=O)[C@@H]1C=C2c3cccc4[nH]cc(c34)C[C@H]2N(C)C1 | active: 3.55 µM | – |
| CN(C)c1ccc(/C=C2\CCCN=C2c2cccnc2)cc1 | inconclusive [inhibitor, single point] | – |
| NC(N)=Nc1ccc2[nH]c3c(c2c1)C[C@@]1(O)[C@H]2Cc4ccc(O)c5c4[C@@]1(CCN2CC1CC1)[C@H]3O5 | active: 1.58 µM | – |
| c1ccc(CN2CC[C@@]3(CCCNC3)C2)cc1 | – | inactive: 6.49% |
| O=C(Cn1c(=S)[nH]c2ccccc2c1=O)N1CCC2(CC1)OCCO2 | – | inactive: 4.54% |
| CN1C(=O)c2ccccc2Sc2ccc(C(=O)N3CCC4(CC3)OCCO4)cc21 | inconclusive [inhibitor, partial curve] | – |
| COc1ccc(C2SCC(=O)Nc3c2c(C)nn3C2CCOC(C)(C)C2)cc1 (centres undefined) | inconclusive [inhibitor, single point] | – |
| N#CC(C#N)=Cc1cc(O)c(O)c([N+](=O)[O-])c1 | inactive and active: 20 µM | – |
| O=C(COc1ccccc1)N1CCN(CCN2C(=O)c3cccc4cccc(c34)C2=O)CC1 | – | inactive: -5.99% |
| COCCNC(=O)c1c(NC(=O)c2ccco2)n(Cc2ccccc2)c2nc3ccccc3nc12 | inconclusive [inhibitor, partial curve] | – |
| COC[C@H]([C@@H](O)[C@@H](O)C(=O)NCC[C@@H](C)c1nc(/C=C/C[C@H]2OC3(C[C@H](O)[C@H]2C)OC([C@@H](C[C@@H](O)[C@@H](C)[C@@H](O)[C@@H](C)/C=C(C)/C(C)=C/C=C/C(C)=C\C#N)OC)[C@@H](OP(=O)(O)O)C3(C)C)co1)N(C)C (some centres undefined) | – | inactive: -6.23% |
| CCCCn1c(=O)c(C=Nc2cc([N+](=O)[O-])ccc2OC)c(O)n(CCCCl)c1=O | active: 11.2 µM | – |
| CC(C)c1ccc(C(c2c(O)c3ccccc3oc2=O)c2c(O)c3ccccc3oc2=O)cc1 | – | inactive: -3.67% [at 13.5 µM] |
| COC(=O)c1ccc(NC2=C(Cl)C(=O)OC2OC(=O)c2ccccc2)cc1 (centres undefined) | inconclusive [inhibitor, single point] | – |
| Cc1ccccc1CN1CCNCC1 | – | inactive: 13.7% |
| CCCCN1C(=O)NC(=O)C2(Cc3c(nc4c(C)cccn4c3=O)N3CCc4ccccc4C32)C1=O (centres undefined) | inconclusive [inhibitor, single point] | – |
| O=C(NC(=O)c1c(F)cccc1F)Nc1ccc(Cl)cc1 | – | inactive: -1.13% |

| Structure (SMILES) | Potency | activity, negative = inhibition |
| --- | --- | --- |
| N[C@@H](Cc1ccccc1)P(=O)(O)O | – | inactive: -0.889% [at 13.5 µM] |
| O=C(c1cc2cc3ccc(Cl)cc3nc2o1)N1CCC2(CC1)OCCO2 | inconclusive [inhibitor, partial curve] | – |
| Cc1ccc(N/N=C/c2c(O)n(-c3ccccc3)c(=O)[nH]c2=O)cc1 | active: 11.2 µM | – |
| CCOC(=O)C1=C(c2ccccc2)OC(N)=C(C#N)C1C(C)C (centres undefined) | inconclusive [inhibitor, partial curve] | – |
| O=C(Oc1nsnc1N1CCOCC1)N(c1ccccc1)c1ccccc1 | inconclusive [inhibitor, single point] | – |
| O=c1c2ccccc2nc(CN2CCOCC2)n1-c1ccccc1F | inconclusive [inhibitor, partial curve] | – |
| CCN(CC)c1ccc(/C=C2/C(=O)NC(=O)N(Cc3ccco3)C2=O)cc1 | active: 0.562 µM | – |
| COc1ccc(CCCc2nnc(SCC(=O)Nc3ccc(C)c(C)c3)o2)cc1 | inconclusive [inhibitor, partial curve] | – |
| CNc1ccc2oc(C[C@@H]3OC4(CC[C@@H]3C)O[C@H](C(C)C(=O)c3ccc[nH]3)[C@H](C)C[C@H]4C)nc2c1C(=O)O (some centres undefined) | inconclusive [inhibitor, partial curve] | – |
| N[C@H](Cc1c[nH]c2ccccc12)P(=O)(O)O | – | inactive: 12.3% [at 13.5 µM] |
| O=[N+]([O-])c1ccc(O[C@@H]2O[C@H](CO)[C@@H](O)[C@H](O)[C@H]2F)c([N+](=O)[O-])c1 | inconclusive [inhibitor, single point] | – |
| CCCCN1C(=O)/C(=C/C=C/c2ccco2)C(=O)NC1=S | active: 15.8 µM | – |
| Cc1nonc1-c1nc(-c2nonc2N)n[nH]1 | – | inactive: -1.34% |
| CCOC(=O)c1[nH]c(C)c(C(=O)N2CCC3(CC2)OCCO3)c1C | inconclusive [inhibitor, single point] | – |
| CC(=O)Nc1cc(C(=O)N2CCC3(CC2)OCCO3)ccc1Sc1ccc(C)cc1 | inconclusive [inhibitor, partial curve] | – |
| O=C(CN1CCOCC1)Nc1ccc(Br)cc1C(=O)c1ccccc1 | inconclusive [inhibitor, partial curve] | – |
| CCn1nc(-c2ccccc2)nc2c(=O)n(C)c(=O)nc1-2 | inconclusive [inhibitor, single point] | – |
| CCOC(=O)C1(CCc2ccccc2)CCN(Cc2cccc3cnccc23)CC1 | inconclusive [inhibitor, single point] | – |
| N=C1/C(=C/c2ccc(OC(=O)c3ccco3)cc2)C(=O)N=C2SC=CN12 | inconclusive [inhibitor, single point] | – |
| CC(C)(C)c1cc(C=C(C#N)C#N)cc(C(C)(C)C)c1O | inactive and active: 8.91 µM | – |
| CN1CCN(Cc2ccc(N)cc2)CC1 | – | inactive: -2.2% |
| CCn1cc(C(=O)N2CCCCC2)c2ccccc21 | inconclusive [inhibitor, single point] | – |
| CC1CCCN(c2ccc(C(=O)N3CCC4(CC3)OCCO4)cc2[N+](=O)[O-])C1 (centres undefined) | inconclusive [inhibitor, partial curve] | – |
| CN1c2ccc([N+](=O)[O-])cc2CC2(C(=O)NC(=O)N(c3ccccc3)C2=O)C1c1ccccc1 (centres undefined) | inconclusive [inhibitor, single point] | – |
